# Measurements: the supplement of paper PMC8728848
# This is one part of the list.
# Assays:
# Experiment in all cases: glycan array binding signal (z-score within array); higher = stronger binding
# Details in all cases: glycan notation: IUPAC condensed, linker removed
# [1] = biological target: Gal3S(b1-4)Glc6S
# Method in brief: (§1)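 Arrays were curated from the Consortium for Functional Glycomics database, 3228 in total, and kept only where the protein sequence was available. Binding is expressed as a within-array Z-score. This score was averaged across arrays of the same protein sequence at different concentrations or buffers and across linkers, and negative values can be read as non-binding.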
# [2] = biological target: Gal3S(b1-4)GlcNAc
# Method in brief: as §1
# [3] = biological target: Gal3S(b1-4)[Fuc(a1-3)]Glc6S
# Method in brief: as §1
# [4] = biological target: Gal3S(b1-4)[Fuc(a1-3)]GlcNAc
# Method in brief: as §1
# [5] = biological target: Gal3S(b1-4)[Fuc(a1-3)]GlcNAc6S
# Method in brief: as §1
# [6] = biological target: Gal3S4S(b1-4)GlcNAc
# Method in brief: as §1
# [7] = biological target: Gal3S6S(b1-4)GlcNAc
# Method in brief: as §1
# [8] = biological target: Gal3S6S(b1-4)GlcNAc6S
# Method in brief: as §1
# [9] = biological target: Gal4S(b1-4)GlcNAc
# Method in brief: as §1
# [10] = biological target: Gal4S6S(b1-4)GlcNAc
# Method in brief: as §1
# [11] = biological target: Gal6P(b1-4)GlcNAc
# Method in brief: as §1
# [12] = biological target: Gal6S(b1-3)GlcNAc
# Method in brief: as §1
# [13] = biological target: Gal6S(b1-3)GlcNAc6S
# Method in brief: as §1
# [14] = biological target: Gal6S(b1-4)Glc
# Method in brief: as §1
# [15] = biological target: Gal6S(b1-4)Glc6S
# Method in brief: as §1
# [16] = biological target: Gal6S(b1-4)GlcNAc
# Method in brief: as §1
# [17] = biological target: Gal6S(b1-4)GlcNAc6S
# Method in brief: as §1
# [18] = biological target: GalNAc(a1-3)Gal
# Method in brief: as §1
# [19] = biological target: GalNAc(a1-3)GalNAc
# Method in brief: as §1
# [20] = biological target: GalNAc(a1-3)GalNAc(a1-3)Gal(a1-4)Gal(b1-4)GlcNAc
# Method in brief: as §1
# [21] = biological target: GalNAc(a1-3)GalNAc(b1-3)Gal(a1-4)Gal(b1-4)Glc
# Method in brief: as §1
# [22] = biological target: GalNAc(b1-3)Gal
# Method in brief: as §1
# [23] = biological target: GalNAc(b1-3)Gal(a1-4)Gal(b1-4)GlcNAc
# Method in brief: as §1
# [24] = biological target: GalNAc(b1-3)Gal(a1-4)Gal(b1-4)GlcNAc(b1-3)Gal(b1-4)Glc
# Method in brief: as §1
# [25] = biological target: GalNAc(b1-3)Gal(a1-6)Gal(b1-4)Glc
# Method in brief: as §1
# [26] = biological target: GalNAc(b1-3)GalNAc
# Method in brief: as §1
# [27] = biological target: GalNAc(b1-3)GlcNAc
# Method in brief: as §1
# [28] = biological target: GalNAc(b1-4)Gal(b1-4)Glc
# Method in brief: as §1
# [29] = biological target: GalNAc(b1-4)GlcNAc
# Method in brief: as §1
# [30] = biological target: GalNAc(b1-4)GlcNAc(b1-2)Man
# Method in brief: as §1
# [31] = biological target: GalNAc(b1-4)GlcNAc(b1-2)Man(a1-3)[GalNAc(b1-4)GlcNAc(b1-2)Man(a1-6)]Man(b1-4)GlcNAc(b1-4)GlcNAc
# Method in brief: as §1
# [32] = biological target: GalNAc(b1-4)GlcNAc(b1-3)GalNAc(b1-4)GlcNAc
# Method in brief: as §1
# [33] = biological target: GalNAc(b1-4)GlcNAc6S
# Method in brief: as §1
# [34] = biological target: GalNAc(b1-6)GalNAc
# Method in brief: as §1
# [35] = biological target: GalNAc3S(b1-4)GlcNAc
# Method in brief: as §1
# [36] = biological target: GalNAc3S(b1-4)GlcNAc3S
# Method in brief: as §1
# [37] = biological target: GalNAc3S(b1-4)[Fuc(a1-3)]GlcNAc
# Method in brief: as §1
# [38] = biological target: GalNAc4S6S(b1-4)GlcNAc
# Method in brief: as §1
# [39] = biological target: GalNAc6S(b1-4)GlcNAc
# Method in brief: as §1
# [40] = biological target: Glc(a1-4)Glc
# Method in brief: as §1
# [41] = biological target: Glc(a1-4)Glc(a1-4)Glc(a1-4)Glc
# Method in brief: as §1
# [42] = biological target: Glc(a1-6)Glc(a1-6)Glc
# Method in brief: as §1
# [43] = biological target: Glc(a1-6)Glc(a1-6)Glc(a1-6)Glc
# Method in brief: as §1
# [44] = biological target: Glc(b1-4)Glc
# Method in brief: as §1
# [45] = biological target: Glc(b1-6)Glc
# Method in brief: as §1
# [46] = biological target: GlcA(b1-3)Gal
# Method in brief: as §1
# [47] = biological target: GlcA(b1-3)GlcNAc
# Method in brief: as §1
# [48] = biological target: GlcA(b1-6)Gal
# Method in brief: as §1
# [49] = biological target: GlcA3S(b1-3)Gal(b1-4)GlcNAc(b1-2)Man
# Method in brief: as §1
# [50] = biological target: GlcA3S(b1-3)Gal(b1-4)GlcNAc(b1-3)Gal(b1-4)Glc
# Method in brief: as §1
# [51] = biological target: GlcNAc(a1-3)Gal(b1-4)GlcNAc
# Method in brief: as §1
# [52] = biological target: GlcNAc(a1-4)Gal(b1-3)GlcNAc
# Method in brief: as §1
# [53] = biological target: GlcNAc(a1-4)Gal(b1-4)GalNAc
# Method in brief: as §1
# [54] = biological target: GlcNAc(a1-4)Gal(b1-4)GlcNAc
# Method in brief: as §1
# [55] = biological target: GlcNAc(a1-4)Gal(b1-4)GlcNAc(b1-3)Gal(b1-4)Glc
# Method in brief: as §1
# [56] = biological target: GlcNAc(a1-4)Gal(b1-4)GlcNAc(b1-3)Gal(b1-4)GlcNAc
# Method in brief: as §1
# [57] = biological target: GlcNAc(a1-4)Gal(b1-4)GlcNAc(b1-3)Gal(b1-4)GlcNAc(b1-3)Gal(b1-4)GlcNAc
# Method in brief: as §1
# [58] = biological target: GlcNAc(a1-4)Gal(b1-4)GlcNAc(b1-3)Gal(b1-4)[Fuc(a1-3)]GlcNAc(b1-3)Gal(b1-4)[Fuc(a1-3)]GlcNAc
# Method in brief: as §1
# [59] = biological target: GlcNAc(a1-6)Gal(b1-4)GlcNAc
# Method in brief: as §1
# [60] = biological target: GlcNAc(b1-2)Gal(b1-3)GalNAc
# Method in brief: as §1
binder,measurement,setting,value
Blon2468mut (Bifidobacterium longum) (protein) MTFIKQMMPRYVASMTAGIVAAAMAATCAFAPVANADAVSPTQETIQSTGRHFMVYYRAWRDVTMKGVNTDLPDDNWISMYDIPYGVDVVNIFSYVPSGQEEQAQPFYDKLKSDYAPYLHSRGIKLVRGIDYTGVAVNGFRTFMKEQNKTESEATEADYDAYAKQVIDKYMISVGLDGLDIDMQAHPNDADVKISDNVIRALSKHIGPKSAKPDTTMFLYDTNGSYLNPFKNVAECFDYVAYQQYGSSSDRTARAAADYQPYIGNEFVPGLTFPEEGDMNNRWYDATEPYEESHFYQVASYVREHNLGGMFVYALDRDGRNYDEDLRRIVPSNLLWTKTAIAESEGMALDTAKTAANHYLDRMSLRQVIDDNAASADKARDMVGKAANLYETNKAVLGGDYGEGFSNTYDPTLEAGLLGIDISVLQQQIDKSSEIIGADTAESDAKTALRMARDAAIDGLTGKIYTADQVSAWSQALKAALDATVPVPTPDSTDQNGNRDKVTNHKVQGQPKQLSATGISTDIIVAVGVTLAIAGVALSLSRKLS,glycan array binding signal (z-score),[1],-0.05
same,glycan array binding signal (z-score),[2],-0.03
same,glycan array binding signal (z-score),[3],0.006
same,glycan array binding signal (z-score),[4],-0.008
same,glycan array binding signal (z-score),[5],-0.03
same,glycan array binding signal (z-score),[6],-0.083
same,glycan array binding signal (z-score),[7],-0.057
same,glycan array binding signal (z-score),[8],-0.011
same,glycan array binding signal (z-score),[9],-0.043
same,glycan array binding signal (z-score),[10],-0.05
same,glycan array binding signal (z-score),[11],-0.066
same,glycan array binding signal (z-score),[12],-0.06
same,glycan array binding signal (z-score),[13],-0.063
same,glycan array binding signal (z-score),[14],-0.063
same,glycan array binding signal (z-score),[15],-0.004
same,glycan array binding signal (z-score),[16],-0.085
same,glycan array binding signal (z-score),[17],-0.072
same,glycan array binding signal (z-score),[18],-0.062
same,glycan array binding signal (z-score),[19],-0.043
same,glycan array binding signal (z-score),[20],-0.093
same,glycan array binding signal (z-score),[21],-0.077
same,glycan array binding signal (z-score),[22],-0.063
same,glycan array binding signal (z-score),[23],-0.032
same,glycan array binding signal (z-score),[24],-0.089
same,glycan array binding signal (z-score),[25],-0.083
same,glycan array binding signal (z-score),[26],-0.043
same,glycan array binding signal (z-score),[27],-0.05
same,glycan array binding signal (z-score),[28],-0.037
same,glycan array binding signal (z-score),[29],-0.008
same,glycan array binding signal (z-score),[30],-0.049
same,glycan array binding signal (z-score),[31],-0.082
same,glycan array binding signal (z-score),[32],-0.069
same,glycan array binding signal (z-score),[33],-0.07
same,glycan array binding signal (z-score),[34],-0.055
same,glycan array binding signal (z-score),[35],-0.043
same,glycan array binding signal (z-score),[36],-0.082
same,glycan array binding signal (z-score),[37],-0.097
same,glycan array binding signal (z-score),[38],-0.081
same,glycan array binding signal (z-score),[39],-0.055
same,glycan array binding signal (z-score),[40],-0.069
same,glycan array binding signal (z-score),[41],-0.064
same,glycan array binding signal (z-score),[42],-0.096
same,glycan array binding signal (z-score),[43],-0.086
same,glycan array binding signal (z-score),[44],-0.072
same,glycan array binding signal (z-score),[45],-0.029
same,glycan array binding signal (z-score),[46],-0.037
same,glycan array binding signal (z-score),[47],-0.085
same,glycan array binding signal (z-score),[48],-0.106
same,glycan array binding signal (z-score),[49],-0.046
same,glycan array binding signal (z-score),[50],-0.089
same,glycan array binding signal (z-score),[51],-0.064
same,glycan array binding signal (z-score),[52],-0.061
same,glycan array binding signal (z-score),[53],-0.094
same,glycan array binding signal (z-score),[54],-0.067
same,glycan array binding signal (z-score),[55],-0.074
same,glycan array binding signal (z-score),[56],-0.074
same,glycan array binding signal (z-score),[57],-0.074
same,glycan array binding signal (z-score),[58],-0.063
same,glycan array binding signal (z-score),[59],-0.051
same,glycan array binding signal (z-score),[60],-0.041
